Results from the supplement of paper PMC7125110.
± gives the standard error. Variants at the background level are over-represented here.

B1: glmS ribozyme (parent)
chain: AUAAAAGCGCCAGAACUACAGAAAUGUAGUUGACGAGGAGGAGGUUUAUCGAAUUUUCGGCGGAUGCCUCCAAA

Variants of: B1
Assay: self-cleavage kobs at 10000 uM GlcN6P; higher = faster cleavage; RNA array
Settings: with glucosamine-6-phosphate
How it was run: (§1)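 kobs was derived by fitting per-tile medians to one- or two-exponential decays after normalising signals to baseline and to non-cleaving reference variants. Those signals came from barcoded ribozyme variants transcribed in situ by E. coli RNA polymerase on sequenced MiSeq chips, followed through a hybridised Cy3 probe at 37 °C and imaged over ~14 h. Glucosamine-6-phosphate (40 μM to 10 mM) in HEPES/KCl/Mg(OAc)2 buffer was flowed in. Weighted Michaelis–Menten fits across concentrations then gave kcat and KM.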

| Variant | self-cleavage kobs at 10000 uM GlcN6P [s⁻¹] |
| --- | --- |
| G7U C34U G35C G41A A48C U55A | < 1e-05 |
| C34U G38U A48U | < 1e-05 |
| U30A U49G C68A | < 1e-05 |
| A6C G29A C34U G43U G44U | < 1e-05 |
| A36C U56C | < 1e-05 |
| G7U U47G G62A | < 1e-05 |
| A14G G35U U49A | < 1e-05 |
| G41C A53G C61G | < 1e-05 |
| U31G C34A A64G U69A C70U | < 1e-05 |
| G37C G44C | < 1e-05 |
| G43A C50A A64U | < 1e-05 |
| A14C A53U C61A | < 1e-05 |
| U30A A42G U46A | 0.000409 ± 9.1e-05 |
| A42C G63A C67A | < 1e-05 |
| G41C A42U C67U | < 1e-05 |
| G38C G43A U46C U54A C58A | < 1e-05 |
| A48C C68A C71U | < 1e-05 |
| G7A C16A U56C C70U | < 1e-05 |
| U30C A53U G60U | < 1e-05 |
| G7U G35U C58U | < 1e-05 |
| G43C A48G C67G | < 1e-05 |
| C16G C50A U56C U69G | < 1e-05 |

| Variant | self-cleavage kobs at 10000 uM GlcN6P [s⁻¹] |
| --- | --- |
| G38A G40U U49A C68U C70U | < 1e-05 |
| C11G G32C G38C G66A | < 1e-05 |
| G43U A52U C58U A64G | < 1e-05 |
| A15U C58G U65A | < 1e-05 |
| C11U G41U G43C A52G C68U | < 1e-05 |
| C8G C34U A39C | < 1e-05 |
| G7C U56C | < 1e-05 |
| A39U U55C U65C | 0.00435 ± 0.00052 |
| G41C A53C C58A C61U | < 1e-05 |
| G32U U46A A52G C61U C67G | < 1e-05 |
| C16G A33U G44U A53U | < 1e-05 |
| C16A G32U U46C G63A C67U C68U | < 1e-05 |
| C34G G59A | < 1e-05 |
| G62U U69C | < 1e-05 |
| C11A G44U C67U | 4.33e-05 ± 2.1e-05 |
| C11A A12C U31C U49A | < 1e-05 |
| U56G G63U C71U | < 1e-05 |
| A6U C10G G62U C67G C71G | 2.87e-05 ± 1.4e-05 |
| G13A U65G C70G | < 1e-05 |
| A42U U56C | 5.38e-05 ± 1.2e-05 |
| G7A C11G C61A | < 1e-05 |
| G7U G35C G41U | < 1e-05 |

| Variant | self-cleavage kobs at 10000 uM GlcN6P [s⁻¹] |
| --- | --- |
| U31A C34U G40C | < 1e-05 |
| G26U U69A | 6.81e-05 ± 2.1e-05 |
| A15G G32A A39U C50U | < 1e-05 |
| U49A C70A | < 1e-05 |
| U57C C68U | 5.36e-05 ± 6e-06 |
| G9A A14G C16G C70A | < 1e-05 |
| C10U A14C G40C | < 1e-05 |
| A5U A39C U65G C68U | 4.87e-05 ± 1.6e-05 |
| A39U U55C A64G | 0.0229 ± 0.0073 |
| U30G A53U U69A | 4.29e-05 ± 1.8e-05 |
| U69A C70A | 3.27e-05 ± 9.4e-06 |
| G38C G44U U55A U65C | < 1e-05 |
| G32A A36G U54C | < 1e-05 |
| C10U G13C G29U A36G C70U | < 1e-05 |
| G7U A39U G43A C67U | < 1e-05 |
| C11U A36U | < 1e-05 |
| G7C C58U C71U | < 1e-05 |
| G29U A33U G62U | < 1e-05 |
| A33U G44C U56A U69C | < 1e-05 |
| G35A G44U | < 1e-05 |
| A6G A15U U31G G35C G66A | < 1e-05 |
| A36G A39U A53G | < 1e-05 |

| Variant | self-cleavage kobs at 10000 uM GlcN6P [s⁻¹] |
| --- | --- |
| G7A A39C C58G | < 1e-05 |
| U30A G41A U46A C70G | < 1e-05 |
| U46G C61G C71G | 4.27e-05 ± 1.8e-05 |
| C10G C11G U30A A48U C50U U57A | < 1e-05 |
| A33U G38U U46G | < 1e-05 |
| A12C U31G G63U | < 1e-05 |
| G35C A48G G59U G60A | < 1e-05 |
| G29C G32A G38C | < 1e-05 |
| C8U A42G A52G | < 1e-05 |
| U31C G44A C71G | < 1e-05 |
| A48C G59U C71G | < 1e-05 |
| A12U G41U A42G G51C | < 1e-05 |
| A14U A42U U57C | < 1e-05 |
| A42U U46A | 0.000112 ± 1.7e-05 |
| C10G A14G A33G | < 1e-05 |
| A36U U57G A64G C67U | < 1e-05 |
| C11A A15G U57A G62U | < 1e-05 |
| C11U U65G C68U | 5.53e-05 ± 1.2e-05 |
| C11U A33U U57C | < 1e-05 |

Variants of: B1
Assay: self-cleavage kobs at 2500 uM GlcN6P; higher = faster cleavage; RNA array
Settings: with glucosamine-6-phosphate
How it was run: as §1

| Variant | self-cleavage kobs at 2500 uM GlcN6P [s⁻¹] |
| --- | --- |
| C10U U30C G44A C68A | < 1e-05 |
| U30A G43U C61A C71U | < 1e-05 |
| C10U A42U C50U G51A | < 1e-05 |
| G38U U45C U57A | < 1e-05 |
| G32A G51U U54A | < 1e-05 |
| A52C U54G G63A | < 1e-05 |
| C11A A36G U65C C71A | < 1e-05 |
| C16U U57A C70G | 5.1e-05 ± 2.1e-05 |
| C16G U30C G32C C58G | 5.09e-05 ± 2.2e-05 |
| A14G G35U U49A | < 1e-05 |
| A36U G44C U69A | < 1e-05 |
| U54A G60C G63A | < 1e-05 |
| C10U C16U G32U G37U G43C | < 1e-05 |
| C19A G29A C34U U47C | < 1e-05 |
| G38C C58U G66A | < 1e-05 |
| U31G C34A A64G U69A C70U | < 1e-05 |
| G35C G41C U46C | < 1e-05 |
| A39U C50G A52G | < 1e-05 |
| G32C G35U U54G | < 1e-05 |
| C16U A36G G43A | < 1e-05 |
| A42U U47G U69A | 0.0115 ± 0.0021 |
| G13A A33C G38C C58A | < 1e-05 |
| C11A A52U U65C | < 1e-05 |

| Variant | self-cleavage kobs at 2500 uM GlcN6P [s⁻¹] |
| --- | --- |
| G37C A42U G51A | < 1e-05 |
| G41C A42U C67U | < 1e-05 |
| G38C G43A U46C U54A C58A | < 1e-05 |
| G29C A36C U46G G63C | < 1e-05 |
| A14U C16U U47G C58U G60A U69G | 0.000102 ± 2.6e-05 |
| G29U A42C C50G | < 1e-05 |
| A15U A33C U47A A53U C58G | < 1e-05 |
| A15C U30A U31C C71G | 0.000148 ± 5.9e-05 |
| G29A U30C A42G G62A | < 1e-05 |
| G32A A33G G63U | < 1e-05 |
| G43C A48G C67G | < 1e-05 |
| G37A G41A C61U | < 1e-05 |
| C11U U31C C50U | < 1e-05 |
| A15U C58G C68U | 6.36e-05 ± 2.9e-05 |
| C34A G35C A42U C70A | < 1e-05 |
| G35A A39U U49C A52U | < 1e-05 |
| U31A A36G C71A | < 1e-05 |
| C16A U31C C70A | < 1e-05 |
| C11U G41U G43C A52G C68U | < 1e-05 |
| C10U A53G G66U C68G | 4.34e-05 ± 1.4e-05 |
| A42U U55C G59C C67A | < 1e-05 |
| U56G G60C C68U | < 1e-05 |
| A15G U31A A53G | 0.01 ± 0.0031 |

| Variant | self-cleavage kobs at 2500 uM GlcN6P [s⁻¹] |
| --- | --- |
| G13U G37U A53G G59A | < 1e-05 |
| C10U G38A U54A | < 1e-05 |
| C11A A52G G60C | < 1e-05 |
| A14G C34A U55C G59C C61A | < 1e-05 |
| C10U G29C A36G G41U U54A | < 1e-05 |
| C34A G35A U47G A48G | < 1e-05 |
| C34G G59A | < 1e-05 |
| A53G C61G G62A | < 1e-05 |
| G44U U45G C70U | 0.000791 ± 0.00023 |
| G40C G60C C67A | < 1e-05 |
| U56G G63U C71U | < 1e-05 |
| G13U A15U C71U | 5.99e-05 ± 2.5e-05 |
| C11U U31A G41A U55C | < 1e-05 |
| C16U G41A C67U | < 1e-05 |
| G32C U47A | 2.87e-05 ± 1.3e-05 |
| G13A A33C A48C | < 1e-05 |
| G37A G40A G59A | < 1e-05 |
| U57C C68U | 3.96e-05 ± 1.4e-05 |
| C34A U49C G59A G63C | < 1e-05 |
| A33C G37U G63U | < 1e-05 |
| A15U C16G G59C | < 1e-05 |
| U69A C70A | 4.37e-05 ± 1.1e-05 |
| A15U A36G A64U | < 1e-05 |

| Variant | self-cleavage kobs at 2500 uM GlcN6P [s⁻¹] |
| --- | --- |
| C34A U49G A53G C68U | < 1e-05 |
| G40A A42C U57C C67U | < 1e-05 |
| G32A A36G U54C | < 1e-05 |
| C11A C34G U49A | < 1e-05 |
| G32U G40C U49A G63C | < 1e-05 |
| A33U G44C U56A U69C | < 1e-05 |
| A15C A36U A42U | < 1e-05 |
| G35A G44U | < 1e-05 |
| C10U C11A G66A | < 1e-05 |
| G13C C16G U30G C71U | < 1e-05 |
| G41U A52G C68G | < 1e-05 |
| C16G G37U A42U A52U | < 1e-05 |
| G29U G41C C58A | < 1e-05 |
| C11U C16U A36G A52G | < 1e-05 |
| A12U G41U A42G G51C | < 1e-05 |
| A42U U46A | 7.32e-05 ± 1.7e-05 |
| C11G C50A A52U | < 1e-05 |
| A12C G32C G37U A53U U54G | < 1e-05 |
| A33G A42U U56C | < 1e-05 |
| A36U U57G A64G C67U | < 1e-05 |
| C11U U65G C68U | 0.000106 ± 3.6e-05 |
